# Assay results published in the supplement of paper PMC10338343.
# ± gives the standard deviation. Only a part is listed here, and it is no random draw.
# System: MIWI (PIWIL1) piRISC loaded with piRNA #1 (30 nt)
# Test: pre-steady-state target cleavage rate (min^-1); MIWI and MILI are mouse PIWI proteins and EfPiwi is from a freshwater sponge; tags in brackets are library labels; higher = faster piRNA-guided slicing of the target
# Settings: guide: piRNA #1 5'p-UGAGGUAGUAGGUUGUAUAGUAUCCAGAGG; auxiliary factor: 500 nM mouse GTSF1
# Outline: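 Active affinity-purified piRISC (1 nM) loaded with one synthetic guide was mixed with a transcribed, DNA-blocked target RNA library (0.1 nM), with or without 500 nM GTSF1 partner protein, in HEPES–potassium acetate buffer at 33 °C for 0–8 or 0–960 min. Uncleaved targets were sequenced, normalised to depth and to weakly complementary targets, and pooled across three trials, with k3 capped at 0.0001 min^-1. The pre-steady-state cleavage rate was determined with a burst-and-steady-state fit.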
row,Sequence,pre-steady-state target cleavage rate
1,GGUCUCGAUACUAUACAACCAACUACCUCA,0.149 ± 0.015
2,GGAGUGGAUGCUAUACAACCUACUACCUCA,1.7 ± 0.13
3,GGAGACCUUACUAAACAACCAACUACCUCA,0.013 ± 0.0034
4,GGAGUGGAUACUAUAGAACCUACAACCUCA,0.00343 ± 0.0028
5,GCUCUGGAUACUAAACAACCUACUACCACA,1.65 ± 0.12
6,GGACUGGAAACUAUACAACCAACUACCUCA,0.0617 ± 0.0089
7,GGACUGCAUACUAUACAACGUACUACCUCA,0.811 ± 0.078
8,GGAGACCUAUCUAUACAACCUAAUACCUCA,0.128 ± 0.014
9,GGAGACCAUACUAAACAACGUACUACCUCA,0.22 ± 0.028
10,GGAGACCUAAUCUAUACAACCUACUACCUCA,1.03 ± 0.081
11,GGAGACCUAUCUAUAACAACCUACUACCUCA,0.108 ± 0.02
12,GGAGACCUAACUAUACAACCUAGUAGCUCA,0.00642 ± 0.0045
13,CCUCUGGAUACUAUACAACCAACUACCUGA,0.0876 ± 0.014
14,GGAGACCUAUGUAUACAACCUACUACCCUCA,0.0949 ± 0.015
15,GGAGACCUAUGAAAACUACCUACUACCUCA,< 0.0001
16,GGAGAGGAUACUAAUGAACCUACUACCUCA,0.359 ± 0.047
17,GGAGUGGAUACUAUACAAGCUUCUACCUCA,0.152 ± 0.013
18,GGAGAGGAUACUAUUCAACCUACUUCCUCA,0.192 ± 0.049
19,GGAGACCAUACUAUACAUCCUACUACCUCA,1.23 ± 0.082
20,GCUCUGGAUACUAUACAACCUUCUAGCUCA,0.266 ± 0.041

row,Sequence,pre-steady-state target cleavage rate
1,GGUCUGGAUACUAUACUACCAACUACCUCA,0.0238 ± 0.0053
2,GGACUCCUUACUAUACAACCUACUACCUCA,1.59 ± 0.12
3,GGAGACCAUACUUUACAACCAACUACCUCA,0.178 ± 0.039
4,GGACUGGUUACUAUACAACCUACUUCCUCA,0.0107 ± 0.0042
5,GGAGUGCAUACUAUACUACCUACUACCUCA,1.13 ± 0.092
6,GGACUGGGUACUAUACAACCUACUACCUCA,1.65 ± 0.13
7,GGAGACGAUAGUAUACAACCUACUACCUGA,0.6 ± 0.091
8,GCUCUGGAUACUAUUCAACCUACUAGCUCA,1.3 ± 0.13
9,CCUCUCGAUACUAUACAACCUACUACCACA,2.21 ± 0.12
10,GGAGUGGAAACUAUACAACCUACUACCACA,0.509 ± 0.045
11,GGAGUGGAUACAAUACAACCUACAACCUCA,0.345 ± 0.032
12,GGAGACCUUACAAUACAACCUACUACCUGA,0.161 ± 0.032
13,GGACUGGAUACUAUUCAACCUAGUACCUCA,0.334 ± 0.065
14,GGACUGGAUACUAUACAUCCUACAACCUCA,0.689 ± 0.067
15,GGAGAGGUUACUAUACAACCUACUUCCUCA,0.0679 ± 0.013
16,GGAGACGAUACUAUACAACCAACAACCUCA,0.15 ± 0.024
17,GGAGACGAUACAAUACAACCUAGUACCUCA,0.3 ± 0.036
18,GGAGUGGAUACUAUAGAAGCUACUACCUCA,0.795 ± 0.039
19,GGACUGGAUACUAUACAACGUACUAGCUCA,0.0513 ± 0.014
20,CCUCUGGAUACUAUACAACCUACAACCACA,0.852 ± 0.092
